Measured values as given in US9050375B2, “Bi-specific digoxigenin binding antibodies” (priority 2009, dated 2015).

Test: SPR (BiaCore) of sequence-optimized anti-Dig modules
Format: binding
From the text: Further optimization of the humanized VH and VL sequences of the anti-digoxygenin antibody was applied to generate modules with even higher affinity towards digoxygenin. Based upon the experimentally determined as well as in-silico calculated predicted structures (see above, based upon structure modeling without experimental structure determination), we identified three positions in which alterations might affect affinity. These were located at (Kabat positions) Ser49, Ile57 and Ala60 of the VH domain (FIG. 46). Replacement of the amino acid VHSer49 with Ala, VHIle57 with Ala and of VHAla60 with Pro generated antibody derivatives with sequences that are listed as SEQ ID NO 36 and SEQ ID NO 37. […] The relevance of these positions was thereafter confirmed by inspecting the experimentally determined structure of the dig-binding variable region. The digoxygenin binding module with improved affinity can be applied as hapten-binding entity for various bi- and multispecific antibody derivatives.
For that, binding properties of the recombinant <Dig> derivatives were analyzed by surface plasmon resonance (SPR) technology using a Biacore T100 or Biacore 3000 instrument (GE Healthcare Bio-Sciences AB, Uppsala). This system is well established for the study of molecule interactions. […]

B1: <DIG> optimized at VH 49, 57, 60 (Kabat): humanized anti-Dig module with VH S49A, I57A, A60P; SEQ ID NO 36 and 37 (antibody)
heavy: QVQLVESGGGLVKPGGSLRLSGAASGFTFSDYAMSWIRQAPGKGLEWVASINIGATYAYYPDSVKGRFTISRDNAKNSLYLQMNSLRAEDTAVYYCARPGSPYEYDKAYYSMAYWGQGTTVTVSS[human IgG1 constant region not shown]
light: DIQMTQSPSSLSASVGDRVTITCRASQDIKNYLNWYQQKPGKAPKLLIYYSSTLLSGVPSRFSGSGSGTDFTLTISSLQPEDFATYYCQQSITLPPTFGGGTKVEIKRTVAAPSVFIFPPSDEQLKSGTASVVCLLNNFYPREAKVQWKVDNALQSGNSQESVTEQDSKDSTYSLSSTLTLSKADYEKHKVYACEVTHQGLSSPVTKSFNRGEC
Q: What does the source list for B1?
A: Kd (BiaCore, FIG. 46 c, d, read-out: KD of anti-Dig module): 1 nM; improvement of affinity towards digoxygenin compared to the humanized parent molecule (VH49, VH57 and VH60 mutations): approximately 10 fold
